In the supplement of paper PMC4996465:
Viability of KB3-1 and Nalm-6 cells after 48 h of drug alone (CellTiter-Glo), 11 doses over about 4.5 log units. % of DMSO wells, lower = more cell loss; AC50 from the fitted curve, lower = more potent. No active / inactive call. Nalm-6 was screened in two runs. AC50 is listed only for well-fitted inhibitory curves. KB3-1 is a HeLa-derived carcinoma line, Nalm-6 a B-cell precursor leukaemia line.

Legend:
Nalm-6 [1] = experiment: log AC50 of viability decrease (48 h) (log10 M); higher = less potent
Description: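 Eleven-dose screen of the NCATS MIPE 3 library on cells without co-treatment; CellTiter-Glo after 48 h. AC50 from the curve fit; only inhibitory curves of the better fit classes are listed.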

Nalm-6 [2] = experiment: viability (% of DMSO control); higher = more viable cells
Description: (§1)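 Eleven-dose screen of the NCATS MIPE 3 library on cells without co-treatment; CellTiter-Glo after 48 h, as % of DMSO wells.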

KB3-1 = experiment: as above
Description: as §1

| SMILES | log AC50 of viability decrease (Nalm-6 [1]; run: 1) | log AC50 of viability decrease (Nalm-6 [1]; run: 2) | viability (Nalm-6 [2]; run: 1, 0.00078 µM) [%] | viability (Nalm-6 [2]; run: 1, 0.00234 µM) [%] | viability (Nalm-6 [2]; run: 1, 0.00702 µM) [%] | viability (Nalm-6 [2]; run: 1, 0.0211 µM) [%] | viability (Nalm-6 [2]; run: 1, 0.0632 µM) [%] | viability (Nalm-6 [2]; run: 1, 0.19 µM) [%] | viability (Nalm-6 [2]; run: 1, 0.569 µM) [%] | viability (Nalm-6 [2]; run: 1, 1.71 µM) [%] | viability (Nalm-6 [2]; run: 1, 5.12 µM) [%] | viability (Nalm-6 [2]; run: 1, 15.4 µM) [%] | viability (Nalm-6 [2]; run: 1, 46.1 µM) [%] | viability (Nalm-6 [2]; run: 2, 0.00078 µM) [%] | viability (Nalm-6 [2]; run: 2, 0.00234 µM) [%] | viability (Nalm-6 [2]; run: 2, 0.00702 µM) [%] | viability (Nalm-6 [2]; run: 2, 0.0211 µM) [%] | viability (Nalm-6 [2]; run: 2, 0.0632 µM) [%] | viability (Nalm-6 [2]; run: 2, 0.19 µM) [%] | viability (Nalm-6 [2]; run: 2, 0.569 µM) [%] | viability (Nalm-6 [2]; run: 2, 1.71 µM) [%] | viability (Nalm-6 [2]; run: 2, 5.12 µM) [%] | viability (Nalm-6 [2]; run: 2, 15.4 µM) [%] | viability (Nalm-6 [2]; run: 2, 46.1 µM) [%] | viability (KB3-1; 0.00078 µM) [%] | viability (KB3-1; 0.00234 µM) [%] | viability (KB3-1; 0.00702 µM) [%] | viability (KB3-1; 0.0211 µM) [%] | viability (KB3-1; 0.0632 µM) [%] | viability (KB3-1; 0.19 µM) [%] | viability (KB3-1; 0.569 µM) [%] | viability (KB3-1; 1.71 µM) [%] | viability (KB3-1; 5.12 µM) [%] | viability (KB3-1; 15.4 µM) [%] | viability (KB3-1; 46.1 µM) [%] |
| --- | --- | --- | --- | --- | --- | --- | --- | --- | --- | --- | --- | --- | --- | --- | --- | --- | --- | --- | --- | --- | --- | --- | --- | --- | --- | --- | --- | --- | --- | --- | --- | --- | --- | --- | --- |
| CCN(CC)CCCCNc1nc2cc(Cl)c(Cl)cc2nc1-c1ccc(-c2cccs2)s1 | -4.83 | -4.73 | 107 | 121 | 133 | 131 | 117 | 117 | 129 | 108 | 102 | 49.6 | 0.444 | 103 | 107 | 112 | 114 | 113 | 106 | 103 | 109 | 101 | 73.1 | 0.863 | 105 | 109 | 106 | 102 | 105 | 104 | 108 | 101 | 105 | 97.4 | -0.125 |
| CN(C)Cc1ccc(-c2nc3cccc4c3n2CCNC4=O)cc1 | -4.63 | -4.63 | 107 | 114 | 111 | 112 | 112 | 116 | 121 | 121 | 113 | 99.2 | 7.74 | 110 | 101 | 106 | 104 | 109 | 112 | 111 | 108 | 102 | 91.7 | 4.61 | 108 | 105 | 110 | 109 | 112 | 112 | 109 | 110 | 109 | 106 | 28.4 |
| CN(C)CCCNC(=O)c1ccc(-c2cc(O)c3ncccc3c2)cc1 | -4.73 | -4.78 | 98.8 | 104 | 107 | 99.1 | 97.6 | 104 | 93.5 | 93.5 | 70.1 | 66.1 | 4.75 | 98.3 | 97.8 | 106 | 108 | 102 | 111 | 106 | 99 | 81.3 | 67.4 | 14.1 | 101 | 102 | 98.3 | 103 | 103 | 105 | 103 | 101 | 103 | 97 | 54.3 |
